# Measured values published in paper PMC4336329 (PLoS ONE, 2015).
# The whole screen tested about 310,000 compounds, of which about 14,000 (4.5%) showed an effect of 50% or more. Effects have a minus sign here. Some of the results follow.
# Target: human ether-à-go-go-related gene (hERG) potassium channel (human, UniProt Q12809)
# Experiment: primary screen, population patch clamp on CHO cells stably expressing hERG
# 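Also: peak tail current of the secondary pulse compared with the same well before compound.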
# Chain of human ether-à-go-go-related gene (hERG) potassium channel (Q12809 whole entry, looked up): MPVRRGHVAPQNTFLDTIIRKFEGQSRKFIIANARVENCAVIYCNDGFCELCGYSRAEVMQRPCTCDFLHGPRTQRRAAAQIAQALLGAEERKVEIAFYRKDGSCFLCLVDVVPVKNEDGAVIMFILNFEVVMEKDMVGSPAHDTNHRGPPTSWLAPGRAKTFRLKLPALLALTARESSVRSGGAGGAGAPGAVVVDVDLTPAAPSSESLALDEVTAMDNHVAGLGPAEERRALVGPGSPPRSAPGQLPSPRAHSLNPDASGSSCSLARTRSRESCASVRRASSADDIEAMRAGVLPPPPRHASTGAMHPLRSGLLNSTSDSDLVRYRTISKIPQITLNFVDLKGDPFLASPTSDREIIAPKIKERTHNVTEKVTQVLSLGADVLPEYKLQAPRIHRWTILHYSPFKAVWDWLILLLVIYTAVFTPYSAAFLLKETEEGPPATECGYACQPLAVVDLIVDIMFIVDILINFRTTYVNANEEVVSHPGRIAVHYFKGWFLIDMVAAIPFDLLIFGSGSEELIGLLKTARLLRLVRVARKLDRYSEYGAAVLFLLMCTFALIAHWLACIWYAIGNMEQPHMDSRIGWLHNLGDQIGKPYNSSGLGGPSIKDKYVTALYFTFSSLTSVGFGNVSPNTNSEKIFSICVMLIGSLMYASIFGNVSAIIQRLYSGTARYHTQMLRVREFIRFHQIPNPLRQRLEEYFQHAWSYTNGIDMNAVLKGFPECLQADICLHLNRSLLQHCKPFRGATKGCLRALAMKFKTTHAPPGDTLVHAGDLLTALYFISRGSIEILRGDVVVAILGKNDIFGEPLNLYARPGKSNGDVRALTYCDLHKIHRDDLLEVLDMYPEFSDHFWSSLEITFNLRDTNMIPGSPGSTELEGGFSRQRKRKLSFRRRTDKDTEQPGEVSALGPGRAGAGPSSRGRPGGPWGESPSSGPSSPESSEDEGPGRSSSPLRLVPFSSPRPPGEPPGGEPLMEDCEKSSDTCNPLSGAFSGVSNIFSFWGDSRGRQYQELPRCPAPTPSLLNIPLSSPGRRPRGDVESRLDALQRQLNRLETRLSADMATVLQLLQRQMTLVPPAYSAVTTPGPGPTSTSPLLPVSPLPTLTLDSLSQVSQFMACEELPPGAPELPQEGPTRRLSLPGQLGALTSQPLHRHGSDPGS
row,Structure (SMILES),"hERG current change (%, negative = inhibition) at 10uM [%]"
1,CCOC(=O)c1c(O)c2ccccc2n(-c2ccccc2)c1=O,12.1
2,COc1ccc(CCNC(=O)CN(C2CCCCC2)S(C)(=O)=O)cc1OC,-1.75
3,COc1ccc(OCc2cc(C(=O)N3CCCC(OC)C3)no2)c2ccccc12 (centres unmarked),1.42
4,COc1ccc(S(=O)(=O)N2CCC(N3CCCCC3)CC2)cc1,-11.7
5,C[N+]1(C)[C@@H]2CC(OC(=O)[C@H](CO)c3ccccc3)C[C@H]1[C@@H]1O[C@@H]12.[Br-] (some centres unmarked),15.8
6,O=C(O)c1ccc(NC2OC[C@@H](O)[C@H](O)[C@H]2O)cc1 (some centres unmarked),0.116
7,S=C(NCC1CCCO1)Nc1cccc2ccccc12 (centres unmarked),31.5
8,COC(=O)c1ccc(OCCCCN(C)Cc2ccccc2)cc1.O=C(O)C(=O)O,-46.5
9,c1ccc(C2=Nn3c(nnc3-c3cc(-c4ccccc4)n[nH]3)SC2)cc1,6.46
10,COc1cc(OC)c(NC(=O)N2CCOCC2)cc1Cl,6.39
11,COC(=O)C(C)Sc1nc2c(cnn2-c2ccc(Cl)cc2)c(=O)[nH]1 (centres unmarked),8.69
12,NC(=O)C1CCN(C(=O)c2ccc(Oc3ccccc3)cc2)CC1,0.308
13,CN(CCOc1cccc2ccccc12)Cc1ccccc1.O=C(O)C(=O)O,0.659
14,Cc1nc2ccc(NC(=O)c3cccc(S(=O)(=O)N4CC(C)OC(C)C4)c3)cc2s1 (centres unmarked),-7.16
15,COC(=O)c1ccccc1NC(=O)N1CSC[C@H]1C(=O)OC,15.8
16,Cc1cc(C(=O)COC(=O)Cc2n[nH]c(=O)c3ccccc23)c(C)n1-c1ccc2c(c1)OCCO2,1.29
17,CCOc1ccc(NC(=O)CCNC(=O)C2CCN(S(=O)(=O)c3ccccc3)CC2)cc1,0.172
18,Cn1c(=O)c(-c2ccccc2N)nc2ccccc21,5.5
19,Cc1ccc(N(Cc2cc3ccccc3[nH]c2=O)C(=O)c2cccs2)cc1C,9.8
20,CC(=O)OCC1OC(n2ncc(=O)n(Cc3ccccc3)c2=O)C(OC(C)=O)C1OC(C)=O (centres unmarked),-1.56
21,C=CC(n1cncn1)C(O)(c1ccccc1)c1ccccc1 (centres unmarked),13.3
22,O=C(O)/C=C/C(=O)NCC1CCC(CNC(=O)/C=C/C(=O)O)CC1 (centres unmarked),7.79
23,O=C(NC1(C(F)(F)F)NC(=O)N(Cc2cccnc2)C1=O)c1ccc(F)cc1 (centres unmarked),-4.56

row,Structure (SMILES),"hERG current change (%, negative = inhibition) at 10uM [%]"
1,CN(Cc1ccon1)C(=O)CC1C(=O)NCCN1CC(C)(C)C (centres unmarked),10.2
2,CC(C)(C)NC(=O)COC(=O)c1ccc(NC(=O)CC#N)cc1,18.8
3,CCC(CC)C(=O)c1c[nH]c(C(=O)OC)c1,10.7
4,COc1ccc(C2C3C(C)=NN=C3CC(C)(O)C2C(C)=O)cc1 (centres unmarked),8.37
5,O=C1c2ccccc2C(=O)N1CCCc1nc(-c2ccccc2)no1,1.83
6,CC(=O)Nc1cccc(CNCc2cccc(NC(C)=O)c2)c1,-2.82
7,CC(C)(C)OC(=O)NCc1nc(N)n[nH]1,15.6
8,Cc1nc(Cl)c(C(=O)NC(=O)Nc2cccc(C(F)(F)F)c2)c(C)c1[N+](=O)[O-],1.12
9,COc1ccc(S(=O)(=O)CCC(=O)N2CCN(c3ccc(F)cc3)CC2)cc1,-59.7
10,CCOc1ccccc1NC(=O)Cn1c(=O)c2ccccc2n(CC)c1=O,-11.7
11,CCn1c(SC(C)C(=O)NC2CCCc3ccccc32)nnc1-c1cccs1 (centres unmarked),-34.5
12,COc1ccccc1CNC(=O)c1ccccc1NS(C)(=O)=O,-10.1
13,COc1ccc(CN2CCN(S(=O)(=O)c3ccc(F)cc3)CC2)cc1OC.O=C(O)C(=O)O,7.33
14,CC(C)C1C(C#N)=C(N)Oc2n[nH]c(-c3ccccc3)c21 (centres unmarked),4.31
15,CNC(=O)c1nc(C)n(-c2ccc([N+](=O)[O-])cc2)n1,-3.99
16,CCCC1NC(=O)NC(C)=C1C(=O)OCC (centres unmarked),3.58
17,COc1ccc(CCNC(=O)CCC(=O)N2CCOc3ccc(Cl)cc32)cc1OC,-20.2
18,COc1ccc(OC)c(S(=O)(=O)ON2C(=O)c3ccccc3C2=O)c1,6.82
19,CC(C)CCN1C(=O)c2ccc(-c3nc4ccccc4c(=O)o3)cc2C1=O,2.87
20,O=C(NCC(c1ccc(F)cc1)N1CCOCC1)c1cccc(Br)c1 (centres unmarked),3.1
21,CC(=O)Oc1ccc(N2C(=O)C3C4C=CC(C5CC45)C3C2=O)cc1[N+](=O)[O-] (centres unmarked),-2.81
22,O=C(CN1C(=O)NC2(CCCCC2)C1=O)N1CCc2ccccc2C1,4.28
23,O=S(=O)(c1ccc(Cl)s1)N1CCC2(CC1)OCCO2,-0.289

row,Structure (SMILES),"hERG current change (%, negative = inhibition) at 10uM [%]"
1,Cc1cc(NC(=O)CSc2nc3ccsc3c(=O)n2CCCCC(=O)O)no1,-18
2,CCCCc1cc(=O)oc2cc(OCC(=O)NCCN3CCOCC3)ccc12,-23.1
3,CS(=O)(=O)c1ccc(Cl)c(NC(=O)Cc2c(Cl)cccc2Cl)c1,6.61
4,CCOC(=O)c1cc(Sc2ccccc2N)cc(C(=O)OCC)n1,6.85
5,COc1ccc(-c2cc(=O)[nH][nH]2)cc1OC,-2.84
6,O=C(CSC1c2ccccc2-c2ccccc21)N/N=C/c1ccccc1,21.8
7,COc1ccc(Cc2nnc(SCC(=O)c3c(N)n(C4CC4)c(=O)[nH]c3=O)o2)cc1,10.9
8,O=C(CC(C(=O)O)c1ccc(Cl)cc1)c1ccccc1 (centres unmarked),10.1
9,O=C(CC(c1ccccc1)c1cc(Cl)ccc1O)N1CCCC1 (centres unmarked),-17.5
10,COc1ccc(NC(=O)CN(C)C(=O)c2cccc(NS(=O)(=O)c3ccc(Br)cc3)c2)cc1,-16.1
11,O=c1c2ccccc2cnn1-c1ccc(Br)cc1,-2.06
12,CCCc1nc2oc3c(NCCOCCO)ncnc3c2c2c1COC(C)(C)C2,-2.6
13,Cc1ccc(NC(=O)CCc2nnc3ccc(N4CCOCC4)nn23)cc1C,-21.7
14,COc1cccc(-c2cn3nc(C)c(C)nc3n2)c1,4.91
15,O=C(CCc1ccccc1)NNC(=O)Cc1ccccc1,33.2
16,CC(C(=O)Nc1ccc(F)c(F)c1F)N(C)Cc1cccs1 (centres unmarked),-1.07
17,CC(C)OCc1c(C(=O)Nc2nccs2)oc2ccccc12,10.5
18,COc1ccc(C(=O)OCC(=O)NC(=O)CCSc2ccccc2)cc1,3.23
19,CC(NS(=O)(=O)c1cccc(S(=O)(=O)c2ccccc2)c1)C(=O)O (centres unmarked),4.32
20,CCOC(=O)C1=C(CN2CCN(C(=O)c3ccco3)CC2)NC(=O)NC1c1ccc(OC(C)C)cc1 (centres unmarked),-69.3
21,O=C(O)C(Cc1ccc(O)cc1)N1C(=O)C2CCCCC2C1=O (centres unmarked),36.8
22,Cc1cc(CNC(=O)C2CCC(=O)N(Cc3ccccc3F)C2)nn1C (centres unmarked),6.4
23,Cc1cc(C)n(-c2nc(NCc3cccnc3)c3c4c(sc3n2)COC(C)(C)C4)n1,-27.4

row,Structure (SMILES),"hERG current change (%, negative = inhibition) at 10uM [%]"
1,O=C(c1ccoc1)N1CCCC(CO)(CCCc2ccccc2)C1 (centres unmarked),-16.5
2,CCOc1nc(NCCN2CCOCC2)nc(Nc2ccc([N+](=O)[O-])cc2)n1,-93.1
3,CC(C)c1nc2cc(C(=O)N3CCNC(=O)C3c3ccc(F)cc3)ccc2o1 (centres unmarked),11.1
4,Cc1nc2ccc(F)cc2cc1C(=O)NC(C)C,5.63
5,CC(C)CCN(C(=O)Cc1ccc(Cl)c(Cl)c1)c1c(N)n(Cc2ccccc2)c(=O)[nH]c1=O,-0.786
6,[O-][n+]1onc2c1CCC1N(O)C(c3ccccc3)CC21O (centres unmarked),14.7
7,COc1ccc(S(N)(=O)=O)cc1C(N)=O,2.96
8,O=C1Nc2ccccc2C12OCCO2,13
9,N/C(=N\OC(=O)Nc1ccc(Cl)cc1)c1ncc(C(F)(F)F)cc1Cl,-0.246
10,Cn1nnc2cc(C(=O)N3CCC(c4ccccc4)C3)ccc21 (centres unmarked),-8.23
11,C[NH+](C)CCOC(=O)c1ccc(COc2ccccc2Br)o1.[Cl-],-44
12,CC1(C)Cc2cccc(OCC(=O)NCCc3ccccc3)c2O1,-5.13
13,CCC(C(=O)N1CCOCC1)n1nc(C)c2sc3ccccc3c2c1=O (centres unmarked),29.7
14,Cc1cccn2c(=O)c3cc(C#N)c(=NC(=O)c4cccs4)n(CC(C)C)c3nc12,-11.5
15,Cc1cccc(NC(=O)C(CC(C)C)NC(=O)C2CCC(C)CC2)n1 (centres unmarked),-17.5
16,NS(=O)(=O)c1ccc(CCNC(=O)COC(=O)CN2C(=O)C3CCCCC3C2=O)cc1 (centres unmarked),18.4
17,COc1ccc(NC(=O)c2cc(S(=O)(=O)N3CCCC3)ccc2C)cn1,-4.2
18,CCCc1cc(=O)[nH]c(SCC(=O)N2CCC(C(=O)OCC)CC2)n1,2.17
19,O=C1C=C(c2cccc(CO)c2)C[C@@H](c2ccc(Cl)cc2)C1,-54.5
20,CC(=O)Nc1ccc(SC[C@H](C)CN2CC[C@H](C(C)(C)C)CCC2=O)cc1,0.892
